# Measured values from the supplement of paper PMC3334620.
# In all, about 33,000 sequences were measured (“E-score (-0.5 to 0.5)”: median about -0.054, highest 2% from about 0.35 on). Some of the results follow.
# Target: T1, Stb5 (UniProt P38699)
# T1 sequence: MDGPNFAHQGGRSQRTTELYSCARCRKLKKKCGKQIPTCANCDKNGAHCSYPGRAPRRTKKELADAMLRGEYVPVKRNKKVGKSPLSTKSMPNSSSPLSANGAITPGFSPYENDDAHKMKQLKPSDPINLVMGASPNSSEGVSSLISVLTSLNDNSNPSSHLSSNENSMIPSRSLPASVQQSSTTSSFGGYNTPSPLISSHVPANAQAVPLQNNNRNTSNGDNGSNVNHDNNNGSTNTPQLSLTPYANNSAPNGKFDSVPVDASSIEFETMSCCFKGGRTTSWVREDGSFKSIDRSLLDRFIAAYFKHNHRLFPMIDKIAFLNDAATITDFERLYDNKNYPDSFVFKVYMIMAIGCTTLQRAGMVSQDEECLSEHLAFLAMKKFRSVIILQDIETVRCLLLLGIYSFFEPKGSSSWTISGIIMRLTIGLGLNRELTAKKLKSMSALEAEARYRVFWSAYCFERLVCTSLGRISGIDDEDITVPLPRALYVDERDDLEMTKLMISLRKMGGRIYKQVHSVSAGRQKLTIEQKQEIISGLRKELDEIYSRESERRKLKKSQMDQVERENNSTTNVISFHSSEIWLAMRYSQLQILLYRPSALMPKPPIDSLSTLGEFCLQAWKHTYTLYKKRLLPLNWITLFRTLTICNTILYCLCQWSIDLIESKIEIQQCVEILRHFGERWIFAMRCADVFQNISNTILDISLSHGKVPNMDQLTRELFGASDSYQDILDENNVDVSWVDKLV
# Assay: PBM E-score (8-mer binding enrichment) (E-score (-0.5 to 0.5)); higher = stronger / more preferred TF binding; most listed sequences are background and not binding sites
# Settings: protein concentration: 200 nM; construct: GST-full length
# How it was run: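 Masliner-normalised scans of fluorescent anti-GST signal were the basis for scoring. That signal came from GST-tagged yeast transcription factors applied at about 100-200 nM to double-stranded universal all-10-mer Agilent arrays on fresh or once-stripped slides. Each ungapped eight-base word, pooled with its reverse complement, received an E-score from the Universal PBM Analysis Suite.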
row,Sequence,PBM E-score
1,AAAATGTA,-0.0998
2,ACGTTCGA,-0.227
3,AGATGAAC,-0.109
4,ATGACCAG,-0.211
5,CAGGATAC,-0.0969
6,AATCATAT,-0.207
7,CTGTGTAA,-0.191
8,TAGGGAAA,0.0766
9,AAGCCTCC,-0.0443
10,GTGACAAC,-0.0547
11,CTTTCATA,0.109
12,CCGGCGCC,0.293
13,AAAATAGG,0.0823
14,GAGATGAA,-0.00726
15,GCTAGAGA,-0.135
16,ACGGTTCG,0.0226
17,CGACTCTC,-0.012
18,GAAAGACC,0.19
19,AGAGCAGG,-0.111
20,TATCGAGA,-0.289
21,ACAAGACT,-0.362
22,CCCAGGGG,-0.0984
23,GGTAGCCA,-0.332
24,GGTTGCGA,-0.0196
25,ATAGCAAT,-0.0233

row,Sequence,PBM E-score
1,AATGTTGC,0.00161
2,AAGTTGCG,-0.0157
3,CAGGCACG,0.134
4,CCCGCTCC,0.268
5,AGATTGGC,-0.0759
6,AAGGCCGC,0.441
7,CGGTACCC,0.157
8,CCCAGCAG,-0.0202
9,AACTGGCA,-0.0464
10,CCGCATGC,0.219
11,AACTCAAT,-0.115
12,GCGAATAC,0.111
13,AACAATGG,-0.232
14,TAGACAAA,-0.188
15,AATGTTCG,-0.0151
16,CCAGGCCA,-0.312
17,CCGTCCCC,0.198
18,ATACTTTA,-0.105
19,ATCTCTAG,-0.12
20,CTGCATAC,-0.0473
21,CCCATTTC,-0.0367
22,AAATAGCT,-0.0851
23,GTGCGCTA,-0.0155
24,CTGTTCAA,-0.217
25,CACGCTTC,-0.212

row,Sequence,PBM E-score
1,CTATCATA,-0.14
2,AAACGACT,-0.0894
3,TATTTTGA,-0.0679
4,GCCATTTA,-0.0738
5,CAGCATCA,-0.107
6,ATGGGAAT,-0.0725
7,GCATGCCA,-0.138
8,TCGTCCAA,-0.0837
9,CAAAGGCA,-0.149
10,TTCCCCAA,-0.232
11,ACTATACT,-0.0742
12,CAAGTTAA,-0.201
13,ACGACGTA,-0.172
14,AACTACCT,-0.0653
15,ATACGGTG,0.226
16,CCGGTAAC,0.265
17,GCGCAACA,-0.0279
18,ATCAACAA,-0.261
19,ACGATGCC,-0.154
20,ATAAGTTG,-0.169
21,CTAAAGCC,0.228
22,AGGAAGTG,-0.165
23,GTACGTGA,-0.195
24,ATGAAATG,0.0192
25,GCGTCTTA,-0.118

row,Sequence,PBM E-score
1,GGCTGAAC,-0.0489
2,CCGACACC,0.348
3,CATTTACA,-0.153
4,CGCGCTTA,0.264
5,CTAGTTTA,-0.0735
6,AGGACGAG,-0.288
7,AAAGTGGA,-0.27
8,ACTCATAT,-0.0119
9,AATTGTGT,-0.128
10,GAGAGGCC,-0.0937
11,GGTTGATA,-0.0103
12,ACTTGACG,-0.1
13,CTTTGCGA,-0.0257
14,AAGGCCTA,-0.00904
15,ACCCTCTG,-0.213
16,CGTGTTAG,0.0849
17,GAAAGGTC,0.12
18,GCATGTTA,0.0557
19,CGAGGATC,-0.0526
20,AAGGGCTA,-0.133
21,GGGTGACC,-0.0307
22,CCTGGGAG,0.00102
23,AACTATAC,0.0236
24,AACGTTAC,-0.0366
25,GAAGATCA,-0.0909

row,Sequence,PBM E-score
1,GCGATGCA,-0.0128
2,GTCGCGAA,-0.154
3,ACCGACAT,0.322
4,ACCAAACC,-0.03
5,CGAACAGA,-0.129
6,AAGATCAC,-0.108
7,CCAGGCTC,-0.217
8,GCCAGGTA,-0.0503
9,GAGAGCCA,-0.174
10,CCGGGTTC,0.24
11,TATCCGAA,0.141
12,AGGCTAAA,-0.0452
13,CACCGTTA,0.367
14,AATGATTA,-0.189
15,AAGGATCC,-0.0877
16,CGTCTCGA,-0.237
17,GGCGACAC,0.176
18,CCGGCAAG,0.205
19,GTCTATGA,-0.0964
20,AAATATTG,0.0971
21,AGTTCATC,-0.183
22,GGCGGGTA,0.229
23,AAGGATGT,-0.249
24,CAAAACAA,-0.388
25,GACATTCC,-0.0941

row,Sequence,PBM E-score
1,AGGCGCTA,0.0525
2,CTTGCACC,0.118
3,ACGCACAG,-0.115
4,CACTCATG,-0.146
5,CCGCCCAC,0.264
6,CGGTCTGA,0.229
7,AATATCGG,0.258
8,GTTGCCAA,-0.23
9,AATCGCAG,-0.183
10,ACTATTAA,-0.227
11,AGAAATGC,0.116
12,ATTCTGGA,-0.223
13,CGAGGAAC,0.176
14,ATTAGTCA,-0.0683
15,AAGCAGCA,-0.0749
16,GGCCATTA,0.148
17,ACGCGATA,-0.138
18,CAGTTGGC,-0.211
19,CACATACG,-0.0167
20,CGTGTACC,-0.0872
21,ATGTCCTG,-0.0717
22,AAAATCAT,-0.106
23,AATGGAGT,-0.259
24,ACCTAGCT,-0.207
25,AGGTCTTC,-0.235

row,Sequence,PBM E-score
1,GATCTTTA,-0.0381
2,ATTGGATG,-0.203
3,GACCACCA,-0.126
4,AATTTCTA,-0.162
5,GTGCCCCA,-0.159
6,AAACCCGG,0.395
7,TCAGACAA,-0.0568
8,GGGCGATA,0.11
9,CAGATAAA,-0.0468
10,AGGTTACT,0.0339
11,GTCAGAAC,0.0598
12,CAATATCA,0.0378
13,CAGCGGAA,0.164
14,GGAGTTAC,0.365
15,CCGACCCG,0.341
16,GACGATTA,0.0317
17,CACCCCGG,0.277
18,GAAGACGC,-0.0115
19,AATCACAC,0.0783
20,GCTAAATA,0.019
21,CTATCTTA,-0.0282
22,CAAATGTA,0.136
23,CCGGGTGC,0.177
24,CTCAACAG,-0.144
25,ATCACAGC,-0.0307

row,Sequence,PBM E-score
1,AATGGGCC,-0.0367
2,ACCGGTCG,0.332
3,CTGTCATA,-0.184
4,CGAGAAGC,0.0462
5,CCCATCAC,-0.02
6,CCCTGATC,-0.00425
7,ACAGAACA,0.081
8,ACTCCGCA,0.259
9,CCTGCTAC,-0.0327
10,TAGGCGCA,-0.186
11,CCATGGCA,-0.0516
12,CACAATCG,0.0773
13,ACCCGGGA,0.208
14,GCGGAGTA,0.33
15,GAAACAGC,0.0928
16,CCGCTAAC,0.278
17,CCCGTCTA,0.151
18,CGATTAAC,0.232
19,CATTACCG,0.205
20,GAGGGGAC,-0.137
21,ACAGACCG,0.23
22,ACACATCA,-0.0998
23,ACTGTCTC,-0.267
24,TCTGGACA,-0.135
25,ATTGTGCG,-0.0334

row,Sequence,PBM E-score
1,ACAGAGCG,-0.0791
2,ACTTAAGT,0.128
3,AGGATTCG,-0.0678
4,AGCTTCGA,-0.217
5,CATGAGTA,-0.00299
6,GAGTTTGC,0.0867
7,CACTTAAG,0.166
8,ACGGCCCT,0.264
9,ATGGTGCG,-0.0498
10,CTAAGCTC,-0.15
11,GCCCATGA,-0.0767
12,GCACGCCC,-0.218
13,AATCATGT,-0.176
14,GGTCCTCA,0.0195
15,ACATAACA,0.176
16,AGGTGACA,-0.0515
17,AATGGCAG,-0.0882
18,AGTCACCA,0.122
19,ATGCCTTA,-0.338
